T1: UNK ZnF1-6 (called full-length) (human, UniProt Q9C0B0 30-357)
T1 sequence: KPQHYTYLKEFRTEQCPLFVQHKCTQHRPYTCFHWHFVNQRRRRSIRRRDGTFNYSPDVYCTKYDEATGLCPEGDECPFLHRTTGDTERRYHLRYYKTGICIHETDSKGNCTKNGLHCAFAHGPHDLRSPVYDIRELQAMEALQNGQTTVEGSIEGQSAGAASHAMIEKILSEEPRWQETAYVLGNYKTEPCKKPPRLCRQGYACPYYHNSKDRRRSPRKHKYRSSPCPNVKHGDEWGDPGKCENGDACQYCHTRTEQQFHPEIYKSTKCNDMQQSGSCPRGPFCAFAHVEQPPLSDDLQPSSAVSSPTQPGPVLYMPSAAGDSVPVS

B1: ENSG00000124766:be:win_101|CDS|ENSG00000124766|bound_else_gene|NA|bound_elsewhere_windowed (ssRNA)
RNA: GGGAGUUCUACAGUCCGACGAUCCCACGCCCGGCUCCACCGCCUCCACGGGCGGCAAGGCCGACGACCCGAGCUGGUGCAAGACCCCGAGUGGGCACAUCAAGCGACCCAUGAACGCCUUCAUGGUGUGGUCGCAGAUCGAGCCAACAGAGGAUUGAGCAUCA
B2: ENSG00000136451:be:win_2951|3pUTR|ENSG00000136451|bound_else_gene|NA|bound_elsewhere_windowed (ssRNA)
RNA: GGGAGUUCUACAGUCCGACGAUCAAAAUUAACUAAACCAAGAUGCUGUGAUUUUUUAAGUUGCAAUAUGUUUUUGGUUUUUUUCAUUUUUUAAUCAUUGCAGUUAAGAGAAAUGGAAAUUAGUUGUGUUAAUCUUGCAGAAUGCAACAGAGGAUUGAGCAUCA
B3: chrX:142202868:142203987:-|CDS|ENSG00000046774|control|control|control (ssRNA)
RNA: GGGAGUUCUACAGUCCGACGAUCUCAGAAAGCAUCAAGAAGAAAGUACUAGAGUUUUUAGCCAAGCUGAACAACACUGUUCCUAGUUCCUUUCCAUCCUGGUACAAGGAUGCUUUGAAAGAUGUGGAAGAGAGAGUCCAGGCCCAACAGAGGAUUGAGCAUCA
B4: chr7:6409910:6410025:-|CDS|ENSG00000164535|unk|FALSE|unique (ssRNA)
RNA: GGGAGUUCUACAGUCCGACGAUCCUCUGCUGCUCACUAUAGCGCCAAGUGGUCACACGAAGCGGAAUUCAGCAAAAUACUCAUAGGUCCGAAGAUGCUCACCGACCACAUGCCAGACAUCCUGAUGCGGGCCUUGGACAGCGUCAACAGAGGAUUGAGCAUCA
B5: ENSG00000070961:be:win_6401|3pUTR|ENSG00000070961|bound_else_gene|NA|bound_elsewhere_windowed (ssRNA)
RNA: GGGAGUUCUACAGUCCGACGAUCCUGGCUUCAUUUCUGUGAAAUUGCUCUUUGAAAAUUUCUUUUUACACGUGUAAGCCAACUGAGAUACCGUGAUGGUGUUGAUUUCUUUCAAUGAUGCUUACCAUCUAUUUUAGCCACUGACAACAGAGGAUUGAGCAUCA
B6: chr8:63210610:63210711:+|3pUTR|ENSG00000185728|msi1|total|mutant (ssRNA)
RNA: GGGAGUUCUACAGUCCGACGAUCCAUGAAGUAAAAAUUUAUUACUCCCGGUAUUCACCCGCUAAAUAAACACCGUUCUUGUUCCGCAAGCAUAUGUUGUUCCUCAGCUCUUUUCUCCAGCUUUUGCAGUGUCCUGGCAUCCUUCAACAGAGGAUUGAGCAUCA

Some of the results follow.

In the assay the target is T1, UNK ZnF1-6 (called full-length). The assay can be described thus: nsRBNS (natural sequence RNA bind-n-seq); RBNS binding buffer (assumed for nsRBNS): 25 mM Tris pH 7.5, 150 mM KCl, 3 mM MgCl2, 0.01% Triton X-100, 500 ug/ml BSA, 20 U/ml SUPERase-In, 4 C; UNK is unkempt and MSI1 is Musashi-1; names of the RNAs are library labels; protein concentration not given here; high values mean tight binding.
B1: the binding signal was 0.516 enrichment R. For the molecule B2, the binding signal is 0.456 enrichment R. Turning to B3, the binding signal is 0.438 enrichment R. For B4 the value was 0.866 enrichment R; for B5, 0.517 enrichment R; for B6, 1.27 enrichment R.
